Assay results from the supplement of paper PMC12067230.
This is a noisy data set.

Assay: amyloid nucleation score relative to library mode (yeast Sup35 reporter selection) (log enrichment difference); higher = more amyloid nucleation; sequences are the first 22 residues of the Bri2 peptide extended by up to 12 random residues
Settings: random library (experiment): 1;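 active = nucleation score significantly above 0 at FDR 0.05; inactive = not significantly above 0 or absent from output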
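Note: [psi-pin-] Saccharomyces cerevisiae expressing SupN fusions, induced by 100 µM Cu2SO4, selected 7 d at 30 °C without adenine and uracil, scored by deep sequencing of output versus input.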

Sequence | amyloid nucleation score
EASNCFAIRHFENKFAVETLICVFMDDGVARPVA | 7.73
EASNCFAIRHFENKFAVETLICVFMDYNHEGAMV | 6.29
EASNCFAIRHFENKFAVETLICVFMGGFSCRNYG | 4.37
EASNCFAIRHFENKFAVETLICVFMKG | 6.5
EASNCFAIRHFENKFAVETLICVFPSEVLWRWWK | 4.73
EASNCFAIRHFENKFAVETLICVFQAEWYHRYRA | 2.48
EASNCFAIRHFENKFAVETLICVFRSLISIPVAS | inactive
EASNCFAIRHFENKFAVETLICVFRVYRPRSYLG | inactive
EASNCFAIRHFENKFAVETLICVFSIAQCWSLPI | inactive
EASNCFAIRHFENKFAVETLICVFSMHSARVVKM | inactive
EASNCFAIRHFENKFAVETLICVFTLNAIEYVKR | inactive
EASNCFAIRHFENKFAVETLICVFTRICVSHNLW | inactive
EASNCFAIRHFENKFAVETLICVFVFRWVLFHKP | inactive
EASNCFAIRHFENKFAVETLICVFVGWVFWTFSS | 5.03
EASNCFAIRHFENKFAVETLICVFVRE | 0.664
EASNCFAIRHFENKFAVETLICVFVRRRRDGREV | -0.273
EASNCFAIRHFENKFAVETLICVFY | 5.05
EASNCFAIRHFENKFAVETLICVFYSGVKVIMHY | 3.14
EASNCFAIRHFENKFAVETLICVFYTSAYPPVTQ | inactive
EASNCFAIRHFENKFAVETLICVG | -0.626
EASNCFAIRHFENKFAVETLICVGAADWMCSRMW | inactive
EASNCFAIRHFENKFAVETLICVGAEV | inactive
EASNCFAIRHFENKFAVETLICVGAGGRSLVVYS | -0.528
EASNCFAIRHFENKFAVETLICVGASFRYLGQLL | inactive
EASNCFAIRHFENKFAVETLICVGAVVSLSRCYV | inactive
EASNCFAIRHFENKFAVETLICVGAVWLLFNTCT | 6.55
EASNCFAIRHFENKFAVETLICVGCSLAARMSRR | 5.47
EASNCFAIRHFENKFAVETLICVGDGSTSWERRL | inactive

Sequence | amyloid nucleation score
EASNCFAIRHFENKFAVETLICVGDIRVHKSVGG | 6.91
EASNCFAIRHFENKFAVETLICVGDM | inactive
EASNCFAIRHFENKFAVETLICVGDVPFLFGSLR | 4.35
EASNCFAIRHFENKFAVETLICVGEQRYHSLLLA | inactive
EASNCFAIRHFENKFAVETLICVGETALSRKGAR | 0.243
EASNCFAIRHFENKFAVETLICVGFSHVVLWLEG | inactive
EASNCFAIRHFENKFAVETLICVGGARECIQARL | 0.0711
EASNCFAIRHFENKFAVETLICVGGATPAQCGHG | inactive
EASNCFAIRHFENKFAVETLICVGGP | -0.265
EASNCFAIRHFENKFAVETLICVGGPGHSGVPPS | inactive
EASNCFAIRHFENKFAVETLICVGHR | inactive
EASNCFAIRHFENKFAVETLICVGHSLCFNLSSP | 4.5
EASNCFAIRHFENKFAVETLICVGITLFRVGWAL | inactive
EASNCFAIRHFENKFAVETLICVGKCLI | inactive
EASNCFAIRHFENKFAVETLICVGKVDDVDTRGR | 0.636
EASNCFAIRHFENKFAVETLICVGLAGWVTWARC | inactive
EASNCFAIRHFENKFAVETLICVGLETKEVGLGT | inactive
EASNCFAIRHFENKFAVETLICVGLGTSRYRDCC | 1.23
EASNCFAIRHFENKFAVETLICVGLLSNVFFDVS | inactive
EASNCFAIRHFENKFAVETLICVGLSDML | inactive
EASNCFAIRHFENKFAVETLICVGM | inactive
EASNCFAIRHFENKFAVETLICVGMDFSVPSDHR | inactive
EASNCFAIRHFENKFAVETLICVGMMWVRARMEV | inactive
EASNCFAIRHFENKFAVETLICVGQDEY | inactive
EASNCFAIRHFENKFAVETLICVGQFFVVSGYPQ | 6.08
EASNCFAIRHFENKFAVETLICVGQKLHNAWPML | inactive
EASNCFAIRHFENKFAVETLICVGQVPRGRSRSV | inactive

Same assay, conditions: random library (experiment): 2

Sequence | amyloid nucleation score
EASNCFAIRHFENKFAVETLICVFMFGA | 8.44
EASNCFAIRHFENKFAVETLICVFNI | 6.19
EASNCFAIRHFENKFAVETLICVFNIFLFQVARL | -0.3
EASNCFAIRHFENKFAVETLICVFNVYI | 7.95
EASNCFAIRHFENKFAVETLICVFPVLGEFIKQR | 7.54
EASNCFAIRHFENKFAVETLICVFQDMKYFLCLQ | inactive
EASNCFAIRHFENKFAVETLICVFQLEYNCTASC | inactive
EASNCFAIRHFENKFAVETLICVFQLIFMMDRST | inactive
EASNCFAIRHFENKFAVETLICVFRDEMKDEVEA | 5.03
EASNCFAIRHFENKFAVETLICVFRVLTHTVSGG | inactive
EASNCFAIRHFENKFAVETLICVFRY | inactive
EASNCFAIRHFENKFAVETLICVFSRNTNSCLRR | inactive
EASNCFAIRHFENKFAVETLICVFTFVCKAKSRL | inactive
EASNCFAIRHFENKFAVETLICVFTLPICRARSI | 4.38
EASNCFAIRHFENKFAVETLICVFTRRHVLESIR | inactive
EASNCFAIRHFENKFAVETLICVFVCTNS | 5.7
EASNCFAIRHFENKFAVETLICVFVDCSIQCFGD | 6.89
EASNCFAIRHFENKFAVETLICVFWTSPYIVCDR | inactive

Sequence | amyloid nucleation score
EASNCFAIRHFENKFAVETLICVGAPEELQRRRE | 2.4
EASNCFAIRHFENKFAVETLICVGASLEDGGFVV | inactive
EASNCFAIRHFENKFAVETLICVGCSSLVRNASF | 7
EASNCFAIRHFENKFAVETLICVGEISL | 4.8
EASNCFAIRHFENKFAVETLICVGFIWSNTNSVV | 7.52
EASNCFAIRHFENKFAVETLICVGFMDSMLTIGV | inactive
EASNCFAIRHFENKFAVETLICVGGNCDMVVPNG | -0.0862
EASNCFAIRHFENKFAVETLICVGHSGLG | inactive
EASNCFAIRHFENKFAVETLICVGISDSTGYLGF | -0.531
EASNCFAIRHFENKFAVETLICVGKV | inactive
EASNCFAIRHFENKFAVETLICVGLTCTEGSVCI | 6.38
EASNCFAIRHFENKFAVETLICVGMFLTSGMILA | inactive
EASNCFAIRHFENKFAVETLICVGMWIMYGMETR | inactive
EASNCFAIRHFENKFAVETLICVGMWVFVRCFMR | inactive
EASNCFAIRHFENKFAVETLICVGNSDSCMRVKG | inactive
EASNCFAIRHFENKFAVETLICVGP | inactive
EASNCFAIRHFENKFAVETLICVGREVV | inactive
EASNCFAIRHFENKFAVETLICVGRGVG | inactive

Same assay, conditions: random library (experiment): 3

Sequence | amyloid nucleation score
EASNCFAIRHFENKFAVETLICVFMGSAMGWERR | 3.24
EASNCFAIRHFENKFAVETLICVFML | 6.46
EASNCFAIRHFENKFAVETLICVFNLFANRWSVR | inactive
EASNCFAIRHFENKFAVETLICVFNMFHLVRFSS | inactive
EASNCFAIRHFENKFAVETLICVFPPSASYMG | 8.75
EASNCFAIRHFENKFAVETLICVFQGSKLFASMT | 2.45
EASNCFAIRHFENKFAVETLICVFRQLWVRMLMR | 1.2
EASNCFAIRHFENKFAVETLICVFSLVFKTIGKS | inactive
EASNCFAIRHFENKFAVETLICVFTFGVRWVCGR | inactive
EASNCFAIRHFENKFAVETLICVFV | inactive
EASNCFAIRHFENKFAVETLICVFVWRGPEYPGD | inactive
EASNCFAIRHFENKFAVETLICVFWPSLSPSVLS | 1.19
EASNCFAIRHFENKFAVETLICVFYMQLRSANVL | inactive
EASNCFAIRHFENKFAVETLICVGARC | 1.4
EASNCFAIRHFENKFAVETLICVGARSAYYSWLG | 4.92
EASNCFAIRHFENKFAVETLICVGAVENARSRQV | inactive
EASNCFAIRHFENKFAVETLICVGAWLIPAVCYA | inactive
EASNCFAIRHFENKFAVETLICVGCDCRGWVHGP | 8.53
EASNCFAIRHFENKFAVETLICVGCGDPIRGLCV | inactive
EASNCFAIRHFENKFAVETLICVGEARFGLGLTP | 7.87
EASNCFAIRHFENKFAVETLICVGKNRLSVCTLI | inactive
EASNCFAIRHFENKFAVETLICVGLAKRGVEDGW | inactive
EASNCFAIRHFENKFAVETLICVGLSHLRGAERT | -0.119
EASNCFAIRHFENKFAVETLICVGLVYAARYGDR | inactive
EASNCFAIRHFENKFAVETLICVGMAVWVAGLLL | inactive
EASNCFAIRHFENKFAVETLICVGQDLPPHLGVS | inactive
EASNCFAIRHFENKFAVETLICVGQRKVLQASPA | inactive
EASNCFAIRHFENKFAVETLICVGQSACDQASGG | inactive
EASNCFAIRHFENKFAVETLICVGRKVKGFAGAG | inactive
